The record followed here is patent publication US20250057968A1, “ANTI-DLL3 ANTIBODY AND PHARMACEUTICAL USE THEREOF, AND ANTIBODY-DRUG CONJUGATE CONTAINING ANTI-DLL3 ANTIBODY” (Jiangsu Hengrui Pharmaceuticals Co., Ltd., priority 2021, published 2025).

The target in test [1] is T1, Biotinylated DLL3 antigen (SEQ ID NO: 9, hDLL3(ECD)-strep twin) (Homo sapiens, UniProt Q9NYJ7).
T1 construct: made in house; host or cells: 293E cells (pTT5 vector)
Kind of test: Protein-level ELISA binding assay. To be noted: reading at 450 nm. Here is the method: Streptavidin (abcam, ab136200, 1 μg/mL) was plated at 100 μL/well, and the plate was incubated overnight at 4° C. The plate was washed 3 times with 250 μL of PBST solution (PBS containing 0.1% Tween 20) per well. The plate was blocked with 250 μL of 5% milk per well at 37° C. for 2 h. The plate was washed 3 times with 250 μL of PBST solution per well. Biotinylated DLL3 antigen (1 μg/mL) (SEQ ID NO: 9) was added, and the plate was incubated at 37° C. for 1 h. The plate was washed 3 times with 250 μL of PBST solution per well. […] The plate was washed 6 times with 250 μL of PBST solution per well. […] The plate was washed 6 times with 250 μL of PBST solution per well. TMB (KPL, 5120-0077) substrate solution was added at 100 μL/well, and color development was allowed at room temperature for 5-10 min. 1 M H2SO4 was added at 100 μL/well to stop the color development, and microplate reader (Molecular Devices, VERSA max) readings at 450 nm were taken.

A further test has as its target T2, human DLL1/CHO-s cells (Homo sapiens, UniProt O00548).
T2 construct: Human DLL1 full-length protein; expressed in transfected cells; host or cells: CHO-s (Invitrogen, R80007)
T2 sequence (O00548 18-723): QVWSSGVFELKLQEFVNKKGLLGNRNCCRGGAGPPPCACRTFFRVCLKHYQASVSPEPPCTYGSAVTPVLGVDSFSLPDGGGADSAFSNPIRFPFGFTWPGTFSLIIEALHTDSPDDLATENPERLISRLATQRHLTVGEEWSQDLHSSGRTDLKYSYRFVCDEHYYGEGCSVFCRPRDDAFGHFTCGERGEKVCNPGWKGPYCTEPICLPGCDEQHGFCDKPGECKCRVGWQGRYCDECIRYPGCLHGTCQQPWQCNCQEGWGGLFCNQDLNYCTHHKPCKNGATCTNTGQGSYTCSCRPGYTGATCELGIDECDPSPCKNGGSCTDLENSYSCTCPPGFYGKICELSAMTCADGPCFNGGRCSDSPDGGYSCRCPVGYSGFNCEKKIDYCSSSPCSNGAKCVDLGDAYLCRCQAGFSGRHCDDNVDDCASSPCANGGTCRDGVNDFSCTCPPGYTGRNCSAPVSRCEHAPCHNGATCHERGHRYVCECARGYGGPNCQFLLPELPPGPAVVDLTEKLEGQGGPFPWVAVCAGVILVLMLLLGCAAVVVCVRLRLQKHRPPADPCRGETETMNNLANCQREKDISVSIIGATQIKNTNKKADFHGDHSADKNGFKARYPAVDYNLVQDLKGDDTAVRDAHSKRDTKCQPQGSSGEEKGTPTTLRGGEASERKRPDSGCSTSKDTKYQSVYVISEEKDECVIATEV
The test can be described thus: DLL1 binding assay (FACS). Here is the method: (§1) Stably transfected human DLL1/CHO-s and human DLL4/CHO-s cells were suspended at 1×10^6/mL in FACS buffer (containing 1% BSA and pH 7.4 PBS), and the cell suspensions were added to a 96-well round-bottom plate (Corning, 3795) at 100 µL/well. The plate was centrifuged at 300 g for 5 min, and the supernatant was removed. Test antibodies were added at 100 μL/well, and the plate was incubated in the dark in a refrigerator at 4° C. for 1 h. After 3 washes by centrifugation at 300 g, working concentrations of PE F(ab′)2-goat anti-human IgG Fc secondary antibody (invitrogen, H10104) were added. The plate was incubated in the dark in a refrigerator at 4° C. for 40 min. After 3 washes by centrifugation at 300 g, the geometric mean fluorescence intensity was measured on an Invitrogen flow cytometer.

A further test has as its target T3, human DLL4/CHO-s cells (Homo sapiens, UniProt Q9NR61).
T3 construct: Human DLL4 full-length protein; expressed in transfected cells; host or cells: CHO-s (Invitrogen, R80007)
Kind of test: DLL4 binding assay (FACS). Here is the method:
as §1

The next test concerns the target T4, human DLL3 (Homo sapiens, UniProt Q9NYJ7).
T4 construct: purchased ACRO DLL3-H52H4
T4 sequence (Q9NYJ7 27-492 limits assumed): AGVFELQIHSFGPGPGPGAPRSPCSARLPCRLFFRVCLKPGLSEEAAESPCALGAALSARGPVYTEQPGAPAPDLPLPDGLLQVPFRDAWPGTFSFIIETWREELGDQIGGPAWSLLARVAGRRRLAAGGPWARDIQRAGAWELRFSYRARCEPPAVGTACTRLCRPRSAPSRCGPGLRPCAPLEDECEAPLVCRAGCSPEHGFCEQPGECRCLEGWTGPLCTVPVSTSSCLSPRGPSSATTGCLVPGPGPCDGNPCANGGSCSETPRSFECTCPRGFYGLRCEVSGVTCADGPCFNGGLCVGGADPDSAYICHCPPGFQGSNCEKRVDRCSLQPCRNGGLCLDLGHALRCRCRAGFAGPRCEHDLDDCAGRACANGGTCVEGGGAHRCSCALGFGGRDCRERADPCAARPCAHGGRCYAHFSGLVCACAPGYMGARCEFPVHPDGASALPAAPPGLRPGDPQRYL
Kind of test: Biacore antibody affinity assay, human DLL3. The test is classed as binding. An excerpt: (§2) Test antibodies were affinity-captured with a Protein A biosensor chip (Cat. #29127556, Cytiva) for 18 seconds, and then the antigens human DLL3 (ACRO, DLL3-H52H4), cynomolgus monkey DLL3 (KACTUS, DLL-RM103), and mouse DLL3 (KACTUS, DLL-MM103) were allowed to flow over the surface of the chip for 180 seconds, followed by 600 seconds of dissociation. Reaction signals were detected in real time using a Biacore 8K (Cytiva) instrument to obtain association and dissociation curves. After the dissociation in each experimental cycle, the biosensor chip was washed and regenerated with a 10 mM glycine-hydrochloric acid solution (pH 1.5) (Cat. #BR-1003-54, Cytiva). A 1:1 model was fit to the data. The results are shown in Table 12-1, Table 12-2, and Table 12-3.
For orientation: SPR reads the build-up and loss of mass on a sensor chip optically.

Another test deals with cynomolgus monkey DLL3. Kind of test: Biacore antibody affinity assay, cynomolgus monkey DLL3. The test is classed as binding.
Text: as §2

A further test concerns DMS53/DLL3 cells. Kind of test: Assay for endocytic activity of anti-DLL3 antibodies (DT3C cell killing). The test is classed as cell-based, human.

T1 sequence (Q9NYJ7 with tags, fused parts or gaps): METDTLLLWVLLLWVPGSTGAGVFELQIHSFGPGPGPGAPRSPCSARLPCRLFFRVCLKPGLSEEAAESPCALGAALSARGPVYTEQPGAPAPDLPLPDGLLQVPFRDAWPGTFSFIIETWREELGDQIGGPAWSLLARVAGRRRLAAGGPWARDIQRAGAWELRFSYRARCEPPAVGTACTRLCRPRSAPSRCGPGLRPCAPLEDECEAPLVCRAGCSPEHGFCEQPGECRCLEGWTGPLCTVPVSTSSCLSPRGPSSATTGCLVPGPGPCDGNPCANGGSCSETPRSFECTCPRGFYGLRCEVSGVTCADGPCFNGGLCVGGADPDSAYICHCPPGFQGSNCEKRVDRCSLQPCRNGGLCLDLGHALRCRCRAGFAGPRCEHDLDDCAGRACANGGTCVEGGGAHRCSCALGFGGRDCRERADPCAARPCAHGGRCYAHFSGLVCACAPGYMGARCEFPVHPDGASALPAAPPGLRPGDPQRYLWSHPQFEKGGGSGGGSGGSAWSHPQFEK
T3 sequence (Q9NR61 27-685): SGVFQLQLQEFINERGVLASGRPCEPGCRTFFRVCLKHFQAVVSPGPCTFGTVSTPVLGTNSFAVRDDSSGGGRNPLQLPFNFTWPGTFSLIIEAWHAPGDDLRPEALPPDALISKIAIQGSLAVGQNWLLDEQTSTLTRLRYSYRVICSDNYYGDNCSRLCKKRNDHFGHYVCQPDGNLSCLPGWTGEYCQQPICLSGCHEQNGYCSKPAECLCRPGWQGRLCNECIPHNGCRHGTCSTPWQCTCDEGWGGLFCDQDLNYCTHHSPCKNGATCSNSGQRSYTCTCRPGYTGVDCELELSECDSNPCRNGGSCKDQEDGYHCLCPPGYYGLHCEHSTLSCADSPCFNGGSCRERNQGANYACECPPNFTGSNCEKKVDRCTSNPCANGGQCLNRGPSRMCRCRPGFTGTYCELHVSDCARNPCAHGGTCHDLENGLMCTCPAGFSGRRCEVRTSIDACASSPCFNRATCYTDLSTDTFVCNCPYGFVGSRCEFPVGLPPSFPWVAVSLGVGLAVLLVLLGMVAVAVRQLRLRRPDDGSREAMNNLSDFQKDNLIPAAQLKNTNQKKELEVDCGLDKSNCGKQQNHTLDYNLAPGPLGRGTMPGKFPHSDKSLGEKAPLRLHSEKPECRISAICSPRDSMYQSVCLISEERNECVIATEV

B1: Hu100: humanized anti-DLL3 antibody, heavy chain SEQ ID NO: 60, light chain SEQ ID NO: 61 (hAb100VH1 + hAb100VL1) (antibody)
heavy: EVQLVESGGGLVKPGGSLRLSCAASGFTFSDSGMHWIRQAPGKGLEWVSYISSGSSTIHYADTVKGRFTISRDNAKNSLYLQMNSLRAEDTAVYYCASPLYYYGRSYNAVAYWGQGTTVTVSS[human IgG1 constant region not written out]
light: DIQMTQSPSSLSASVGDRVTITCHASQNINVWLSWYQQKPGKVPKLLIYKASDLHTGVPSRFSGSGSGTDFTLTISSLQPEDVATYYCQQGQSYPLTFGGGTKVEIKRTVAAPSVFIFPPSDEQLKSGTASVVCLLNNFYPREAKVQWKVDNALQSGNSQESVTEQDSKDSTYSLSSTLTLSKADYEKHKVYACEVTHQGLSSPVTKSFNRGEC
modifications: Hu100
As to B1, the “Emax (OD value)” value in test [1] is given as 2.05 OD value. In addition, the “binding to human DLL1” value with human DLL1/CHO-s cells is “neither antibody Hu6 nor Hu100 bound”. For the same molecule, in the test with human DLL4/CHO-s cells, the “binding to human DLL4” value was “neither antibody Hu6 nor Hu100 bound”. For the same molecule, in the test with human DLL3, the “ka” value was 858000 M⁻¹ s⁻¹ and the “kd” value stood at 0.000374 s⁻¹. Also, at cynomolgus monkey DLL3, the affinity, expressed as Kd, was 1.11 nM. Further, in the test on DMS53/DLL3 cells, the “endocytosis by cells (in words)” value is “can be endocytosed by cells”.

B2: Hu6: humanized anti-DLL3 antibody, heavy chain SEQ ID NO: 58, light chain SEQ ID NO: 59 (hAb6VH12 + hAb6VL4) (antibody)
heavy: EVQLVQSGSELKKPGASVKVSCKASGYTFTDYYMNWVRQAPGQGLEWMGIINPYSGVTIYNHKFKGRFALSVDKSSNTAYLQISSLKAEDTAVYYCARQDSLLDYAMDYWGQGTTVTVSS[human IgG1 constant region not written out]
light: DIQMTQSPSSLSASVGDRVTITCHASQGISGNMGWLQQKPGKAPKGLIYHGANLEDGVPSRFSGSGSGADYTLTISSLQPEDFADYYCVQYAQFPYTFGGGTKVEIKRTVAAPSVFIFPPSDEQLKSGTASVVCLLNNFYPREAKVQWKVDNALQSGNSQESVTEQDSKDSTYSLSSTLTLSKADYEKHKVYACEVTHQGLSSPVTKSFNRGEC
modifications: Hu6
Turning to B2, in test [1], the “Emax (OD value)” value is 2.13 OD value. For the same molecule, the “binding to human DLL1” value with human DLL1/CHO-s cells is “neither antibody Hu6 nor Hu100 bound”. Also, the “binding to human DLL4” value in the test with human DLL4/CHO-s cells is listed as “neither antibody Hu6 nor Hu100 bound”. Further, in the test with human DLL3, the “ka” value was 2.06e+06 M⁻¹ s⁻¹ and the “kd” value was 0.000805 s⁻¹. Besides, the dissociation constant (Kd) at cynomolgus monkey DLL3 turned out to be 1.31 nM. Also, the “endocytosis by cells (in words)” value in the test on DMS53/DLL3 cells is “can be endocytosed by cells”.

The Kd is the concentration at which binding is half-saturated.
